Measured values from article PMC6212790.
The list shows a part of the results. At the low end of the ranking the order means little.

target: T1, GST-Rok (full length) (UniProt O34857); assay: protein binding microarray; conditions: Rok is a gene silencer of Bacillus subtilis; high values mean tight binding; most listed sequences are background and not binding sites; double strand, one strand shown;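 note: rank score from −0.5 (least bound) to 0.5 (best bound)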
T1 sequence: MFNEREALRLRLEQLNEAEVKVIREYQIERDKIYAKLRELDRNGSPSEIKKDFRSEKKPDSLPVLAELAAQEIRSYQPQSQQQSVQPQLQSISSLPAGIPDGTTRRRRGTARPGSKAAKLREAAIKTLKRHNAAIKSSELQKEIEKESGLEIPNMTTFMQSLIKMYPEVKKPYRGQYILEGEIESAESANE

Sequence	binding signal [E-score]
ACTTCTGA	0.145
GGTGCACC	-0.361
GTATGAAC	0.131
CCAGGCGC	-0.218
AGTCAAGG	-0.195
AGAAAAAC	0.0823
CTTATTAC	0.299
CGATAGTC	-0.0533
GCTCGCAA	-0.17
ACACCAGA	0.127
AGCTGAAG	0.0654
ACCGTAGC	-0.0206
AGATTGCC	0.0654
CTACTCCC	-0.0755
AGTGGTGA	0.0809
ACAAGCGA	-0.0201
GGCCGAAC	-0.324
CCAGGTGC	-0.241
AGTCATGG	0.19
GTAAATAA	0.234
CGCGGTCC	-0.283
CTTTTTTC	0.0367
GCCCTATA	-0.0695
AAGCAGGG	-0.208
CTGCCCCC	-0.348

Sequence	binding signal [E-score]
CGGACCGA	-0.124
CCCGCATA	-0.22
AGTCGCTA	0.14
GTTGTAAA	0.23
AACTTACC	0.174
GCCCGCTA	-0.315
GATGCCCC	-0.333
CTCTCTGC	-0.0927
TTAGAGAA	-0.0617
CCAGCTCA	-0.112
ACGGCCCT	-0.196
AGTGCAAG	0.148
GAGTGTCA	-0.0572
ACATAAGT	0.127
AGTGTGTC	0.069
TGGTGCAA	-0.0163
ACACAGGA	-0.106
GTGGAACA	-0.229
AACACGCG	-0.0773
AGACAACT	0.093
GAGGTCAC	-0.243
CTTTCCAA	-0.208
CTGTAAAG	0.124
GTTATCAA	0.257
ACTCGACT	-0.0227

Sequence	binding signal [E-score]
ATTGATTG	0.0266
AATAAAAA	0.217
GGTGAACA	0.193
ACAGCGAC	0.0346
CCCATCTA	0.0362
AGCGGGTG	-0.203
CACAGTGG	-0.16
ACGGTAAC	0.0635
CAGCGATA	-0.0515
CATGAGGA	-0.183
CATGGAAG	-0.127
CGGTCGCA	-0.056
GAATAAAC	0.0508
CATCCATA	0.185
AAGTCATA	0.0344
CAATGTAC	0.263
TAGGACGA	-0.211
ACAGGCGC	0.0267
GTCTAGAA	-0.0015
AATCCGTA	-0.00212
AGTTGATA	0.257
CGCCTACC	-0.12
CGAGTCGC	-0.14
CCCGCGAC	-0.309
CGATGTCC	-0.123

Sequence	binding signal [E-score]
AGGCCGCA	-0.381
CTTAGATA	0.262
TCACAGCA	-0.00318
CAGGCCAC	-0.18
AATACCAG	0.0344
AACTGATT	0.102
CCAAGCCA	-0.28
CACACTAA	0.178
CCATTACG	0.148
CAACGCTG	-0.0877
GGAGGTGA	-0.124
GAGGCGTA	-0.0959
CCACGCCA	-0.312
ATGCTAAG	0.111
AACGAGTT	0.296
GAAATAGC	0.107
AAGCGGGA	-0.219
CGCTATAA	0.134
CCTGATAG	-0.00748
GTTGCCAA	0.0981
GGGTCGAA	-0.241
CGTAGGGC	-0.412
CATTACGA	0.145
GAGTTGAC	0.00651
CCGCTGCG	-0.292

Sequence	binding signal [E-score]
ACAGGTTG	-0.129
AACCAACG	0.0361
AGGGGCTA	-0.332
TCGAAGAA	-0.123
GCCTACGA	-0.0129
ATACCGGG	0.208
GCTCCGGA	-0.102
ACCACGCA	-0.125
CGGACTCA	-0.0715
CTGGGAGC	-0.262
GTGAGGCA	-0.0545
CCGTAGGC	-0.2
AGGGAGAC	-0.272
ACCTGGGA	-0.267
CACTCGAG	-0.14
AAAGTGAA	-0.0164
AGGTGTCG	-0.1
AAAGCGGT	-0.0445
ACGGAAAA	0.136
GATGCAGA	0.0867
CTCCGTGA	0.05
CGGTGGGC	-0.289
AATTCCTG	0.177
ACTTTGCT	0.0417
AAATGAAG	-0.00523

Sequence	binding signal [E-score]
AGCACCAG	-0.18
CCGCGTGA	-0.0263
ATCAATTG	0.221
ATCGGATC	0.0732
CAAATCTA	0.377
ACATGTAG	0.338
AGTAGTTA	0.434
CTACTTCA	0.175
ACTGCTAA	0.122
CAAACTTG	0.0756
TGAGCGCA	-0.219
ATAACTGG	0.191
AACCCCGC	-0.394
CTTGAGAC	-0.0563
TCAGCCAA	-0.0964
CACGGGGA	-0.174
CGCCTAAA	-0.249
CGGGTTGA	-0.0591
CCCTCTGA	-0.247
AGTTCCAC	0.00523
ACAAGACA	-0.0301
ATTCCCAC	-0.0472
AGACGGCT	-0.17
CAGGTTTA	-0.222
ATGGCGAC	-0.218

Sequence	binding signal [E-score]
AACCCCGG	-0.24
TCCTCCAA	-0.119
GCTTAGCA	-0.109
GCACAGGA	-0.164
ATCAGGGC	-0.0319
CGTTCCTC	-0.0344
CTTACTGC	0.145
CGGAGACG	-0.164
CATTTACG	0.109
AGGAGCTG	-0.214
CCCGGAGG	-0.443
CATTCCAA	-0.00431
AAGTACTT	0.308
TGTGGAAA	-0.174
ACCAGACA	-0.0398
CTCTCCAG	-0.311
GCCAGGTA	0.0369
GATGGATA	0.0355
TAGAAATA	0.409
AGAGCGGG	-0.16
ATACGGCG	-0.274
ACACTGAA	0.0821
